This note sets out measurements from PubChem BioAssay AID463173 (ICCB-Longwood Screening Facility, Harvard Medical School, 2010).

The campaign covered roughly 52,000 compounds. About 1,700 (3.3%) were called active. Rule as the data show it: active = survival mostly below about 52% (no sharp cut-off); inactive = mostly above about 56%. The list shows a part of the results.

The assay concerns Wild type. Briefly: growth inhibition of S. aureus wild type versus tarO mutant, primary screen, teichoic acid synthesis inhibitors, RN4220, OD600 (AID 463173). As to conditions: S. aureus RN4220 wild type/DeltatarO growth, OD600, 18 h, hits give low values, screened at 18.75 µg/mL (by protocol).
Regarding `CCC(c1nnnn1Cc1ccco1)N(Cc1cccs1)Cc1cc2c(C)cc(C)cc2n2nnnc12` (configuration not stated), the survival was inactive: 105%. In the case of `Cc1ccccc1CN1C(=O)c2ccccc2Sc2ccc(C(=O)NCc3cccs3)cc21`, the survival is inactive: 74%.

On to `CN1CCC(OC(=O)COc2ccc(F)cc2)CC1`, for which the survival was inactive: 108%. The value for `Cc1noc(/C=C/c2ccccc2F)c1S(=O)(=O)N1CCC(C(=O)N(C)Cc2ccco2)CC1` was inactive: 67%; that for `COC(=O)c1c(N)n(-c2cc(Cl)cc(Cl)c2)c2nc3ccccc3nc12` was inactive: 59%. The value for `CCC(=O)N1CCc2cc(Br)cc(S(=O)(=O)N3CCCC(C(=O)NCc4ccccc4)C3)c21` (configuration not stated) was inactive: 94%; that for `COc1ccccc1N1CCN(S(=O)(=O)c2c(C)sc3ncn(CC(=O)Nc4ccccc4F)c(=O)c23)CC1` was inactive: 78%; that for `COc1ccc(S(=O)(=O)NCC(c2ccco2)N2CCOCC2)cc1C` (configuration not stated) was inactive: 89%. The value for `O=C(Cn1c(=O)nc(-c2ccccc2)c2cc(Cl)ccc21)NCCc1ccc(Cl)cc1` was inactive: 75%; that for `CCOc1ccc(/C=C/c2nc3ccccc3n2S(=O)(=O)c2ccc(Br)cc2)cc1` was inactive: 78%; that for `COc1cccc(NC(=O)Cn2c(=O)n(-c3ccc(Cl)cc3)c(=O)c3sc4ccccc4c32)c1` was inactive: 83%.

With `CCN1CCN(c2ncc3c(n2)CCN(Cc2ccc(Br)s2)C3)CC1`, the survival is inactive: 60%. The value for `CCc1ccc(NCc2cccn2-c2nnc(N3CCCCCC3)s2)cc1` was active: -1%. In the case of `CCc1ccc(-c2[nH]nc3nc(-c4ccc(OC)cc4)cc(C(=O)NCCc4ccc(OC)c(OC)c4)c23)cc1` it was inactive: 71%. In the case of `CCOc1ccc(NC(=O)CSc2nnc(CNC(=O)c3c(F)cccc3Cl)o2)cc1`, the survival is inactive: 85%. For the molecule `COc1ccc(OC)c(-c2cc(C(=O)Nc3cnn(Cc4ccc(Cl)cc4Cl)c3)no2)c1`, the survival was inactive: 60%. Take `Cc1ccc(NC(=O)Cn2nnc3sc(-c4ccccc4)cc3c2=O)cc1Cl`: the survival is inactive: 83%. Consider `Cc1ccc2c(c1)N(C(=O)NCc1ccccc1)CCO2`, for which the survival is inactive: 88%. The value for `CCC(C)NC(=O)c1ccc2c(=O)n3c(nc2c1)CCCCC3` (configuration not stated) was inactive: 78%; that for `COc1ccc(C)cc1NS(=O)(=O)c1ccc2c(c1)n(C)c(=O)n2C` was inactive: 65%; that for `CCC(CC)c1nn2c(=O)cc(COc3ccc(NC(=O)c4cccc(Cl)c4)cc3)nc2s1` was inactive: 88%. In the case of `COc1ccc(C(=O)NCC2(N3CCN(C)CC3)CCCCC2)cc1` it was inactive: 85%; in that of `COC(=O)c1ccc(Cl)cc1NC(=O)N(Cc1ccc(C)o1)C1CCN(C(C)=O)CC1`, inactive: 76%; in that of `CCn1c(=O)c(=O)n(CC)c2cc(N3CCCCC3)c(NC(=O)c3cccc(F)c3)cc21`, inactive: 87%. The value for `CCOC(=O)CNc1nnc(SCC(=O)OCC)[nH]c1=O` was inactive: 97%. Take `Cc1nnc2c(Nc3cccc(O)c3)nc3ccccc3n12`: the survival is inactive: 75%.

Consider `CC(C)(C)c1nnc(NC(=O)CS(=O)(=O)Cc2ccccc2)s1`, for which the survival is inactive: 104%. As for `Cc1cc2c(N=NC(=O)C3CC34CCC4)c(O)[nH]c2cc1Br` (configuration not stated), the survival is inactive: 97%. In the case of `CC(=O)Nc1ccc(C)cc1-c1nc2ccccc2n(CC(=O)Nc2cc(Cl)ccc2C)c1=O` it was inactive: 90%.

Consider `O=C(O)c1ccc(CO)o1`, for which the survival is inactive: 101%. In the case of `CC(C)CN1C(=O)c2ccc(Br)cc2C1=O` it was inactive: 100%; in that of `COC(=O)c1ccc(C(C)N(C)C)o1` (configuration not stated), inactive: 107%; in that of `CCCN1Cc2cccc(C(=O)Nc3cc(C)cc(C)c3)c2C1=O`, inactive: 87%. In the case of `Cc1nc2ccc(NC(=O)C3CC3)cc2c(=O)n1Cc1ccc(F)cc1` it was inactive: 103%; in that of `COc1ccc(Cl)cc1NC(=O)CCC(=O)N1CCOc2ccccc21`, inactive: 83%. In the case of `CCO/C(C)=N\Oc1cc(=O)oc2ccccc12` it was inactive: 122%; in that of `COc1ccc(NC(=O)CSc2nc(-c3ccco3)cc(C(F)(F)F)n2)cc1`, inactive: 99%. `COc1ccc(NC(=O)Cn2c(=O)n(Cc3ccc(C(=O)NCc4ccccc4Cl)cc3)c(=O)c3ccccc32)cc1OC`: the survival was inactive: 89%.

As to `Cc1ccc(-n2ncc3c(NCCCn4ccnc4)ncnc32)cc1Cl`, the survival is inactive: 75%. In the case of `COc1ccc(CC(=O)NCC(c2ccc(N(C)C)cc2)N2CCOCC2)cc1` (configuration not stated) it was inactive: 81%; in that of `CC(C)c1ccc(OC(=O)c2cc(-c3ccc(Cl)cc3)on2)cc1`, inactive: 98%. Turning to `CCCNC(=O)N1[C@H](c2ccc(C)s2)[C@@H](C)C(=O)[C@@H](C)[C@@H]1c1ccc(C)s1`, the survival was inactive: 83%.

For the molecule `COC(=O)c1cnc(NCc2ccc(F)cc2)c2ccccc12`, the survival was inactive: 135%.

As to `Cc1cc(F)ccc1S(=O)(=O)Nc1ccc2c(c1)CCCN2C(=O)c1cccs1`, the survival was inactive: 75%. Turning to `COc1ccc(N2C(=O)C(CC(=O)Nc3ccc(F)cc3)N(Cc3ccc4c(c3)OCO4)C2=O)cc1` (configuration not stated), the survival is inactive: 79%.

Consider `Nc1nnnn1/N=C/c1cccc(Br)c1`, for which the survival is inactive: 117%. In the case of `CCN(CC)C(=O)Cn1c(=O)nc(-c2ccccc2F)c2cc(Cl)ccc21` it was inactive: 73%; in that of `CCOC(=O)Cc1ccc(NC(=O)NCc2cccn2Cc2ccccc2)cc1`, active: -6%; in that of `O=C1c2[nH]nc(-c3ccccc3O)c2C(c2ccccc2F)N1Cc1ccncc1` (configuration not stated), inactive: 93%. In the case of `Cc1ccc(NC(=O)CSc2nc(-c3cccs3)nc3cc(=O)[nH]n23)cc1` it was inactive: 71%. For the molecule `COc1ccc(-n2c(=O)c3sc4ccccc4c3n(CC(=O)Nc3ccccc3F)c2=O)cc1`, the survival is inactive: 87%.

Regarding `CCC(Cc1ccccc1)NC(=O)Cn1ncc2c3ccccc3n(Cc3ccccc3)c2c1=O` (configuration not stated), the survival was inactive: 80%.

As to `CCOc1ccc(C(=O)c2cn(Cc3ccc(Cl)cc3)c3cc(OC)c(OC)cc3c2=O)cc1`, the survival was inactive: 143%. The value for `CCc1nc2nc(C)cc(Nc3ccc(OC)cc3OC)n2n1` was inactive: 75%; that for `Cc1ccc(Nc2nnc(-c3ccc(C)c(S(=O)(=O)N4CCOCC4)c3)c3ccccc23)c(C)c1` was inactive: 148%; that for `Cc1ccc2c(c1)NC(=O)C(CC(=O)Nc1ccccc1Cl)O2` (configuration not stated) was inactive: 75%. The value for `Cc1oc(-c2ccc(Cl)cc2)nc1CN1CCC(C(=O)NCCCN2CCN(c3cccc(Cl)c3)CC2)CC1` was inactive: 30%.

For `CC(C)CNCC(=O)N(C1CCCCC1)C1CCCCC1`, the survival was inactive: 115%. In the case of `Cc1ccc(Cl)cc1N1CCN(C(=O)c2cc(S(=O)(=O)N3CCCC3)cn2C)CC1` it was inactive: 96%; in that of `COC(=O)c1cc2c(ccn2-c2ccc(F)cc2)n1CC(=O)N1CC(C)CC(C)C1` (configuration not stated), inactive: 113%; in that of `COc1ccc(C(=O)NCCc2sc(-c3ccc(Cl)cc3)nc2C)c(OC)c1`, inactive: 124%. For `COc1ccc(C)cc1Nc1nc2cc(Cl)c(Cl)cc2nc1-n1nc(C)cc1C`, the survival is inactive: 82%.

Consider `C=Cc1ccc(CN2C(=O)N(c3ccc(CC)cc3)S(=O)(=O)c3ccccc32)cc1`, for which the survival was active: 1%. Consider `COc1ccc(C)cc1NC(=O)CSc1nc(=O)n(Cc2ccncc2)c2c1CCC2`, for which the survival was inactive: 124%. The value for `COc1ccc(C)cc1NC(=O)NCc1ccc2c(c1)CCN2C(=O)c1ccccc1` was inactive: 119%. The value for `Cc1ccc(NC(=O)Cn2c(=O)n(-c3ccccc3)c(=O)c3c4c(sc32)CCCC4)cc1` was inactive: 89%; that for `O=C(Cc1ccc(Cl)cc1)n1cc(Cl)cn1` was inactive: 97%; that for `COc1cc(NC(=O)CN2C(=O)COc3ccc(S(=O)(=O)N4CCCCC4)cc32)cc(OC)c1` was inactive: 94%.

Turning to `CCc1cccc(N2C(=O)N(CC(=O)NCc3cccc(OC)c3OC)c3ccccc3S2(=O)=O)c1`, the survival is inactive: 72%. As to `CCCN1C(=O)C(Cc2nc3ccccc3c(=O)n2-c2ccccc2)c2cc(C)ccc21` (configuration not stated), the survival was inactive: 83%. The value for `Cc1ccc(C)c(CN2C(=O)c3ccccc3S(=O)(=O)c3ccc(C(=O)N4CCN(c5ccccn5)CC4)cc32)c1` was inactive: 80%. In the case of `COC(=O)c1ccc(OCC2c3cc(OC)c(OC)cc3CCN2C(=O)C(C)C)cc1` (configuration not stated) it was inactive: 118%; in that of `CCOC(=O)COc1ccc(C)cc1C(=O)c1ccn2nc(-c3ccc(C)cc3)cc2n1`, inactive: 72%. The value for `O=C(CSc1ncc2c(n1)-c1ccccc1N(Cc1ccccc1)S2(=O)=O)Nc1ccccc1` was active: -6%; that for `COCCNC(=O)c1ccc(CSc2nc3ccncc3n2Cc2ccccc2)cc1` was inactive: 81%. For `COc1cccc(NC(=O)CSc2nc3ccccc3n2C)c1`, the survival is inactive: 71%. The value for `CCC(=O)N1CCc2cc(S(=O)(=O)CCC(=O)N3CCN(c4cc(C)ccc4C)CC3)ccc21` was inactive: 78%; that for `COc1ccc(OC)c(NC(=O)CN(C)S(=O)(=O)c2ccc3[nH]c4c(c3c2)CCCC4)c1` was inactive: 69%. In the case of `CCOc1ccc(NC(=O)c2c(NC(=O)Cc3ccccc3)sc3c2CCC(C)C3)cc1` (configuration not stated) it was inactive: 67%; in that of `Cc1ccc(Cn2nnc3c(=O)[nH]c(C4CCN(S(=O)(=O)c5ccc(S(=O)(=O)NC6CC6)cc5)CC4)nc32)cc1`, inactive: 117%; in that of `COc1ccc(Cn2nnc(C(=O)Nc3cc(OC)ccc3OC)c2N)cc1`, inactive: 76%. In the case of `COc1ccc(OC)c(CCNC(=O)c2c(C)nn(-c3ccc(F)cc3)c2-n2cccc2)c1` it was inactive: 92%; in that of `COCCCNC(=O)C1CCN(Cc2nc(-c3ccc(OC)c(OC)c3)oc2C)CC1`, inactive: 86%; in that of `Cc1ccc(NC(=O)Cn2c(=O)n(Cc3ccco3)c(=O)c3ccc(C(=O)NC4CCCC4)cc32)c(C)c1`, inactive: 87%. Regarding `CCOc1ccc(C(=O)NCC(c2ccc3c(c2)OCO3)N2CCN(c3ccccc3F)CC2)cc1` (configuration not stated), the survival was inactive: 127%. `CCOc1ccc(NC(=O)c2c(NCc3ccc(C)o3)sc3c2CCC(C)C3)cc1` (configuration not stated): the survival was inactive: 113%. The value for `Cc1nnc(N2CCC(C(=O)NC3CCCCC3)CC2)c2nn(-c3ccc(Cl)cc3)c(C)c12` was inactive: 74%.
